Experimental data: PubChem BioAssay AID2202238 (Ras Initiative Chemistry Research Team, Frederick National …, 2025)
The list shows a part of the results. These are further read-outs of the screen, such as a control signal, another cell line or another target. No call is given for them.

Target: GTPase KRas (Homo sapiens) (UniProt P01116)
Assay: Fragment capture on engineered cysteines, share of protein labelled (AID 2202238)
Parameters: protein at 5 µM with 500 µM competing thiol for 1.5 h
Conditions: KRAS G12D cysteine mutants, disulfide tethering, MALDI-TOF labeling, stronger effect = higher value, fragment at 500 µM
[1] = measured here: G75C mutant labeling
[2] = measured here: H94C mutant labeling
[3] = measured here: I36C mutant labeling
[4] = measured here: L120C mutant labeling
[5] = measured here: M67C mutant labeling
[6] = measured here: M72C mutant labeling
[7] = measured here: N86C mutant labeling
[8] = measured here: P121C mutant labeling
[9] = measured here: S122C mutant labeling
[10] = measured here: S136C mutant labeling
[11] = measured here: G60C mutant labeling
[12] = measured here: N26C mutant labeling

UniProt P01116, sequence (P01116 whole entry, looked up, the tested form may be a part): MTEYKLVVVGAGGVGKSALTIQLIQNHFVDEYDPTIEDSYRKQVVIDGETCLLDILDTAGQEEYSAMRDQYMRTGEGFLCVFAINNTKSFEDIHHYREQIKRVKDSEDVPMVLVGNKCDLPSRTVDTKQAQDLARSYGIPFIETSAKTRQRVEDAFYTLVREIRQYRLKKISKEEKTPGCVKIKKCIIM

## O=C(CCS)N1CCOc2cc(Br)c(F)cc21
[1]
  percent labeling: 27.2%
[2]
  percent labeling: 19.9%
[3]
  percent labeling: 18.8%
[4]
  percent labeling: 15.5%
[5]
  percent labeling: 21.1%
[6]
  percent labeling: 44%
[7]
  percent labeling: 16.4%
[8]
  percent labeling: 19.8%
[9]
  percent labeling: 7.8%
[10]
  percent labeling: 23.4%

## CC(C)(c1cccc(NC(=O)CCS)c1)C(F)(F)F
[1]
  percent labeling: 13.2%
[2]
  percent labeling: 20.9%
[3]
  percent labeling: 17.2%
[4]
  percent labeling: 17%
[5]
  percent labeling: 11.8%
[6]
  percent labeling: 39.1%
[7]
  percent labeling: 12%
[8]
  percent labeling: 14.5%
[9]
  percent labeling: 13.7%
[10]
  percent labeling: 27.5%

## O=C(NCCS)c1cc2c(ccc3ccccc32)o1
[11]
  percent labeling: 17.9%
[1]
  percent labeling: 12%
[2]
  percent labeling: 8.4%
[3]
  percent labeling: 6%
[4]
  percent labeling: 13.4%
[5]
  percent labeling: 7.6%
[6]
  percent labeling: 30.7%
[12]
  percent labeling: 21%
[7]
  percent labeling: 10.4%
[8]
  percent labeling: 9.4%
[9]
  percent labeling: 7.9%
[10]
  percent labeling: 11.2%

## O=C(CCS)NC1CS(=O)(=O)C2CN(Cc3ccccc3)CC12 (configuration not stated)
[1]
  percent labeling: 12.4%
[2]
  percent labeling: 27.2%
[3]
  percent labeling: 47.8%
[4]
  percent labeling: 25.8%
[5]
  percent labeling: 58.1%
[6]
  percent labeling: 24.5%
[7]
  percent labeling: 19.3%
[8]
  percent labeling: 33.3%
[9]
  percent labeling: 31.7%
[10]
  percent labeling: 53.4%

## CCCC(NC(=O)c1cc2ccccc2s1)C(=O)NCCS (configuration not stated)
[11]
  percent labeling: 23.1%
[1]
  percent labeling: 15.7%
[2]
  percent labeling: 10.2%
[3]
  percent labeling: 7.1%
[4]
  percent labeling: 17%
[5]
  percent labeling: 22.1%
[6]
  percent labeling: 23%
[12]
  percent labeling: 21%
[7]
  percent labeling: 5.8%
[8]
  percent labeling: 11.5%
[9]
  percent labeling: 4.7%
[10]
  percent labeling: 7.3%

## Cc1ccc(CN(CCO)C(=O)CCS)o1
[1]
  percent labeling: 21.8%
[2]
  percent labeling: 36.4%
[3]
  percent labeling: 25.1%
[4]
  percent labeling: 26.9%
[5]
  percent labeling: 29.4%
[6]
  percent labeling: 28.4%
[7]
  percent labeling: 24.6%
[8]
  percent labeling: 29.9%
[9]
  percent labeling: 33.5%
[10]
  percent labeling: 54.5%

## O=C(CCS)Nc1cccc(Cc2nc3cccc(Cl)c3s2)c1
[1]
  percent labeling: 14%
[2]
  percent labeling: 19.4%
[3]
  percent labeling: 37.6%
[4]
  percent labeling: 11.5%
[5]
  percent labeling: 30.1%
[6]
  percent labeling: 35.1%
[7]
  percent labeling: 20%
[8]
  percent labeling: 14.3%
[9]
  percent labeling: 10.4%
[10]
  percent labeling: 18.8%

## Cn1c(=O)n(CC(=O)NCCS)c2ccccc21
[11]
  percent labeling: 43.7%
[1]
  percent labeling: 21.1%
[2]
  percent labeling: 35.1%
[3]
  percent labeling: 36.2%
[4]
  percent labeling: 59.1%
[5]
  percent labeling: 31%
[6]
  percent labeling: 38.3%
[12]
  percent labeling: 41.7%
[7]
  percent labeling: 24.6%
[8]
  percent labeling: 33.5%
[9]
  percent labeling: 32.9%
[10]
  percent labeling: 61.2%

## O=C(CCS)N1C[C@@H]2C[C@H](C1)[C@@H]1CCCC(=O)N1C2
[1]
  percent labeling: 14%
[2]
  percent labeling: 21.8%
[3]
  percent labeling: 22.8%
[4]
  percent labeling: 26.3%
[5]
  percent labeling: 28.1%
[6]
  percent labeling: 9.7%
[7]
  percent labeling: 19.9%
[8]
  percent labeling: 24.5%
[9]
  percent labeling: 32.4%
[10]
  percent labeling: 38%

## Cn1cc(CNC(=O)CCS)c(=O)[nH]c1=O
[1]
  percent labeling: 0%
[2]
  percent labeling: 22.4%
[3]
  percent labeling: 29.4%
[4]
  percent labeling: 18.5%
[5]
  percent labeling: 32.4%
[6]
  percent labeling: 7.9%
[7]
  percent labeling: 12.8%
[8]
  percent labeling: 37.5%
[9]
  percent labeling: 26.5%
[10]
  percent labeling: 39.6%

## Cc1cc(NC(=O)CCS)nn1CCC#N
[1]
  percent labeling: 15.2%
[2]
  percent labeling: 29.9%
[3]
  percent labeling: 36.9%
[4]
  percent labeling: 30.3%
[5]
  percent labeling: 30.3%
[6]
  percent labeling: 24.7%
[7]
  percent labeling: 20.4%
[8]
  percent labeling: 34%
[9]
  percent labeling: 31.5%
[10]
  percent labeling: 48.4%

## O=C(NCCS)C1Cc2cc(Br)cnc2C1 (configuration not stated)
[11]
  percent labeling: 56.9%
[1]
  percent labeling: 20.6%
[2]
  percent labeling: 40%
[3]
  percent labeling: 34.7%
[4]
  percent labeling: 46%
[5]
  percent labeling: 36.7%
[6]
  percent labeling: 39.1%
[12]
  percent labeling: 52.2%
[7]
  percent labeling: 30.7%
[8]
  percent labeling: 39.8%
[9]
  percent labeling: 30.9%
[10]
  percent labeling: 54.4%

## O=C(NCCS)C1CCN(S(=O)(=O)c2ccc3[nH]c(=O)cnc3c2)CC1
[11]
  percent labeling: 36.1%
[1]
  percent labeling: 15.7%
[2]
  percent labeling: 17.6%
[3]
  percent labeling: 21.4%
[4]
  percent labeling: 16.7%
[5]
  percent labeling: 17.1%
[6]
  percent labeling: 21.9%
[12]
  percent labeling: 34.3%
[7]
  percent labeling: 16.5%
[8]
  percent labeling: 19.1%
[9]
  percent labeling: 16.2%
[10]
  percent labeling: 21.1%

## Cn1cc(C(C(=O)NCCS)N2CCOCC2)cn1 (configuration not stated)
[11]
  percent labeling: 17.2%
[1]
  percent labeling: 7.7%
[2]
  percent labeling: 25.1%
[3]
  percent labeling: 21.7%
[4]
  percent labeling: 28.1%
[5]
  percent labeling: 31.2%
[6]
  percent labeling: 6.9%
[12]
  percent labeling: 30.7%
[7]
  percent labeling: 20.7%
[8]
  percent labeling: 30.8%
[9]
  percent labeling: 27%
[10]
  percent labeling: 33.5%

## O=C(NCCS)c1ccnc(OC2CCOC2)c1 (configuration not stated)
[11]
  percent labeling: 30.8%
[1]
  percent labeling: 19.2%
[2]
  percent labeling: 29.5%
[3]
  percent labeling: 25.1%
[4]
  percent labeling: 36.9%
[5]
  percent labeling: 30.5%
[6]
  percent labeling: 39.6%
[12]
  percent labeling: 46.1%
[7]
  percent labeling: 23.4%
[8]
  percent labeling: 29.4%
[9]
  percent labeling: 31%
[10]
  percent labeling: 53.5%

## Cc1nc(-c2cc3c(s2)CCN(C(=O)CCS)C3)cs1
[1]
  percent labeling: 14.3%
[2]
  percent labeling: 18.6%
[3]
  percent labeling: 21.3%
[4]
  percent labeling: 12%
[5]
  percent labeling: 19%
[6]
  percent labeling: 39.9%
[7]
  percent labeling: 14.3%
[8]
  percent labeling: 12.8%
[9]
  percent labeling: 9.9%
[10]
  percent labeling: 17.7%

## O=C(NCCS)c1ccnc(-c2ccc(Cl)cc2)n1
[11]
  percent labeling: 28.9%
[1]
  percent labeling: 15.9%
[2]
  percent labeling: 13.3%
[3]
  percent labeling: 8.3%
[4]
  percent labeling: 17.4%
[5]
  percent labeling: 8.8%
[6]
  percent labeling: 30.8%
[12]
  percent labeling: 23%
[7]
  percent labeling: 10.8%
[8]
  percent labeling: 11.2%
[9]
  percent labeling: 9.1%
[10]
  percent labeling: 14.2%

## CCc1cc(=O)c2cc(NC(=O)CCS)ccc2[nH]1
[1]
  percent labeling: 8.2%
[2]
  percent labeling: 21.8%
[3]
  percent labeling: 26%
[4]
  percent labeling: 18.9%
[5]
  percent labeling: 25.5%
[6]
  percent labeling: 24.7%
[7]
  percent labeling: 18%
[8]
  percent labeling: 18.9%
[9]
  percent labeling: 18.6%
[10]
  percent labeling: 36.6%

## Cc1ccc(-c2c[nH]cc2C(=O)NCCS)s1
[11]
  percent labeling: 3.7%
[1]
  percent labeling: 0%
[2]
  percent labeling: 2.6%
[3]
  percent labeling: 0%
[4]
  percent labeling: 0%
[5]
  percent labeling: 2.1%
[6]
  percent labeling: 3%
[12]
  percent labeling: 2.8%
[7]
  percent labeling: 0%
[8]
  percent labeling: 2%
[9]
  percent labeling: 0%
[10]
  percent labeling: 11.9%

## O=C(CCS)NCc1cc2n(n1)CCCO2
[1]
  percent labeling: 12.4%
[2]
  percent labeling: 33.6%
[3]
  percent labeling: 43%
[4]
  percent labeling: 25.6%
[5]
  percent labeling: 37.6%
[6]
  percent labeling: 20.9%
[7]
  percent labeling: 39.4%
[8]
  percent labeling: 38.8%
[9]
  percent labeling: 37%
[10]
  percent labeling: 55.1%

## Cn1cc(S(=O)(=O)N2CCOCC2)cc1C(=O)NCCNC(=O)CCS
[1]
  percent labeling: 8.8%
[2]
  percent labeling: 22.4%
[3]
  percent labeling: 35.2%
[4]
  percent labeling: 25.3%
[5]
  percent labeling: 28.4%
[6]
  percent labeling: 14.3%
[7]
  percent labeling: 15.8%
[8]
  percent labeling: 25%
[9]
  percent labeling: 29.9%
[10]
  percent labeling: 45.3%

## O=C(NCCS)c1cccc(OCc2cn3ccccc3n2)c1
[11]
  percent labeling: 30.8%
[1]
  percent labeling: 9.7%
[2]
  percent labeling: 17.9%
[3]
  percent labeling: 12.9%
[4]
  percent labeling: 13.2%
[5]
  percent labeling: 20.4%
[6]
  percent labeling: 48.4%
[12]
  percent labeling: 37.3%
[7]
  percent labeling: 8.1%
[8]
  percent labeling: 11.3%
[9]
  percent labeling: 8.9%
[10]
  percent labeling: 16.9%

## CC(C)c1n[nH]c(CC2CCN(C(=O)CCS)CC2)n1
[1]
  percent labeling: 11.2%
[2]
  percent labeling: 33.5%
[3]
  percent labeling: 38.4%
[4]
  percent labeling: 42.3%
[5]
  percent labeling: 41.1%
[6]
  percent labeling: 18.5%
[7]
  percent labeling: 29.9%
[8]
  percent labeling: 34.8%
[9]
  percent labeling: 34.6%
[10]
  percent labeling: 53.5%

## N#Cc1cccc(OCc2ccoc2C(=O)NCCS)c1
[11]
  percent labeling: 23.4%
[1]
  percent labeling: 9%
[2]
  percent labeling: 14%
[3]
  percent labeling: 8.8%
[4]
  percent labeling: 14.7%
[5]
  percent labeling: 11.3%
[6]
  percent labeling: 35%
[12]
  percent labeling: 18.9%
[7]
  percent labeling: 11.2%
[8]
  percent labeling: 12.1%
[9]
  percent labeling: 8.9%
[10]
  percent labeling: 15.1%
